# In PubChem BioAssay AID1347165 (National Center for Advancing Translational Sciences (NCATS), 2019):
# Screen size: about 220,000 compounds; about 5,700 (2.6%) were called active. The inconclusive results got no clear call from the source; some entries with a clear call stand among them for comparison. The call rests on the fitted dose curve; in most records, active means well fitted inhibition curve with a large enough effect; inconclusive means small, poorly fitted or top-dose-only effect; inactive means no such curve, though single readings can be large or run the other way. Where the call is inconclusive, the potency comes from a doubtful curve fit.
# Target: Lysine-specific demethylase 5B (Homo sapiens) (UniProt Q9UGL1)
# Experiment: Primary screen for KDM5B Histone Demethylases FDH-coupled qHTS; further: nearly all actives have a fitted effect of over 70% in size; on activity change, negative = inhibition: 0% is about no effect
# Conditions: FDH-coupled NADH fluorescence (FDH is formaldehyde dehydrogenase); activity change, negative = inhibition: at 57.7 µM (top of the series) unless noted
# In short: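 Inhibition is measured as reduced NADH fluorescence generation from FDH coupling to formaldehyde release. Truncated KDM5BΔAP at 200 nM final acts on H3K4me3 peptide (12.5 µM in substrate mix) in pH 7.5 HEPES buffer with Tween-20, 30 min, room temperature.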
# Potency means the concentration at half of the fitted maximal effect; tags describe the fitted curve by direction and shape.
# Sequence of UniProt Q9UGL1 (Q9UGL1 whole entry, looked up): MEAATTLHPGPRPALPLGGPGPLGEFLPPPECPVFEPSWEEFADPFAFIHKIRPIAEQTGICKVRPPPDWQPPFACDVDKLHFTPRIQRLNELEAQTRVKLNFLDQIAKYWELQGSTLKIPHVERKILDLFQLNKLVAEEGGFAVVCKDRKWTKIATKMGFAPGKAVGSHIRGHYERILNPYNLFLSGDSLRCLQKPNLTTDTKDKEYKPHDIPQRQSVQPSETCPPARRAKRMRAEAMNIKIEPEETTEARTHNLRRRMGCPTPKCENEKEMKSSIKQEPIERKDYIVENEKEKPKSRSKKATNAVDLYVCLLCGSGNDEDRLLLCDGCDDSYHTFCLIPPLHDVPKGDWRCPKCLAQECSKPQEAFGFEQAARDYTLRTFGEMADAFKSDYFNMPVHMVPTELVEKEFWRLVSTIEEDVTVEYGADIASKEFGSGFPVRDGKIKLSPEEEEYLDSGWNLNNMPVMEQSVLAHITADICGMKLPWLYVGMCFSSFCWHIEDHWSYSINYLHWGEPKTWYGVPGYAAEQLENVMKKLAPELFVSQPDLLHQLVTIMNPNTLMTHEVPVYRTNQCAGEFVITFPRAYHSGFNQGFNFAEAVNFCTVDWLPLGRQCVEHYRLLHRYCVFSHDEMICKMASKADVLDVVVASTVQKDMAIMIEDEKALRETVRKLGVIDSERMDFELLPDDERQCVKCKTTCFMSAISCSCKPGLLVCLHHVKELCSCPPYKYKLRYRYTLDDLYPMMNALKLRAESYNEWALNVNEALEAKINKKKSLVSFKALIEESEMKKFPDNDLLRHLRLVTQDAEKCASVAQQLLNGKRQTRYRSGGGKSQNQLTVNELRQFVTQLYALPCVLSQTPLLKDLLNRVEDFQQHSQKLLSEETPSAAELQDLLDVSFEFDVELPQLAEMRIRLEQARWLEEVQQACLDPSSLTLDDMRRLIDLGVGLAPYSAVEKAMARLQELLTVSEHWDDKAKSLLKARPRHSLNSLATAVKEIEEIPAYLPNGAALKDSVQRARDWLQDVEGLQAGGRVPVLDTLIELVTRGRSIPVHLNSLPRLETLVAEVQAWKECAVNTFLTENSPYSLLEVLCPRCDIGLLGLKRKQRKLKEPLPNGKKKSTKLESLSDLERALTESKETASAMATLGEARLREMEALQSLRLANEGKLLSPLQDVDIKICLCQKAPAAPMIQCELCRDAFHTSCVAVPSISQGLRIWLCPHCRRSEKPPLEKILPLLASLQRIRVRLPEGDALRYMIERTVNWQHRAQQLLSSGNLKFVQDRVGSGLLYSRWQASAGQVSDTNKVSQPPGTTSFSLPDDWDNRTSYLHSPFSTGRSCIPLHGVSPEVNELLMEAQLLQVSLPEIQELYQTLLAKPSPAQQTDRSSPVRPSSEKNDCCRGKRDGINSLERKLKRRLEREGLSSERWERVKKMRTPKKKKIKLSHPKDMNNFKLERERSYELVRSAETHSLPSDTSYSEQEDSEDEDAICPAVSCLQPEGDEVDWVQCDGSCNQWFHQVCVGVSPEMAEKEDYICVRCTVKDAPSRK
SMILES,Potency,"activity change, negative = inhibition"
Cc1ccc(N(C)S(=O)(=O)c2ccc(/C=C\c3onc(C)c3NC(=O)C3CC3)cc2)cc1C,"inconclusive: 28.2 µM [inhibitor, partial curve, poor fit]",–
COCCNC(=O)C(C)[C@@H]1CCc2c(C)cc(OCCOC)c(C)c2[C@@H]1O (some centres not stated),"inconclusive: 31.6 µM [inhibitor, single point]",–
OCc1ccc(-c2cc3c(ccn3Cc3cccnc3)c(C3=CCOCC3)n2)cc1,"inconclusive: 39.8 µM [inhibitor, partial curve, poor fit]",–
Cc1ccc(C(=O)NC2CCN(c3cc(-c4ccccc4)[nH]n3)C2)cc1C (configuration not stated),"inconclusive: 7.94 µM [inhibitor, partial curve]",–
Cc1ncc2c(c1CNC(=O)c1cccc(-c3ncc[nH]3)c1)CCNC2,"inconclusive: 7.08 µM [inhibitor, partial curve, poor fit]",–
COC(=O)c1c(-c2cccs2)csc1NC(=O)COc1ccc(C)cc1,"inconclusive: 28.2 µM [inhibitor, partial curve, poor fit]",–
COc1cccc(OC)c1C(=O)NCCc1csc(-c2ccc(Cl)cc2)n1,"inconclusive: 5.01 µM [inhibitor, partial curve, poor fit]",–
COc1ccc(-c2cc(-c3cnc4[nH]ccc4c3)cn3cncc23)cc1,"inconclusive: 14.1 µM [inhibitor, partial curve, poor fit]",–
O=C1CC(c2ccco2)CC(O)=C1C=NCCN1CCN(C(=S)Nc2ccccc2)CC1 (configuration not stated),"inconclusive: 39.8 µM [inhibitor, single point]",–
O=C(NCc1cccnc1)[C@@H]1C[C@@H](O)CN1C1CCN(C(=O)CCc2ccccc2)CC1,–,inactive: 3.78%
COc1cc(=O)n2c(c1C(=O)NCc1ccccc1Cl)CCCC2,"inconclusive: 28.2 µM [inhibitor, partial curve, poor fit]",–
COCCNC(=O)C1CCCN(c2nc3ncccc3o2)C1 (configuration not stated),active: 28.2 µM,–
CC(C)(C)C(=O)Nc1ccc(-c2nc3ccccc3o2)cc1,"inconclusive: 8.91 µM [inhibitor, full curve, poor fit]",–
Cc1cccc(CN2CCNc3cc(Nc4cccnc4)ncc3C2)c1,"inconclusive: 44.7 µM [inhibitor, partial curve, poor fit]",–
Cc1ccc(OCCNC(=O)Cc2c[nH]c3ccccc23)c(C)c1,–,inactive: 7.37%
Cn1cc(CN2CCCCCNC(=O)[C@@H]3CCC[C@@H]32)c2ccccc21,"inconclusive: 15.8 µM [inhibitor, partial curve, poor fit]",–
COc1ccc2c(c1)cc(C(=O)NCc1ccc(C)cc1)n2C,–,inactive: 2.69%
COCc1cn(C[C@H]2C[C@@H](NC(=O)c3cc(C)on3)[C@H](O)[C@@H]2O)nn1,"inconclusive: 31.6 µM [inhibitor, single point]",–
CSc1ccc(CCNC(=O)CCc2c(C)nc3ncnn3c2C)cc1,"inconclusive: 7.94 µM [inhibitor, partial curve, poor fit]",–
CCNC(=O)/C(C#N)=C/c1c(N2CCN(c3ccccc3)CC2)nc2ccccn2c1=O,"inconclusive: 28.2 µM [inhibitor, partial curve, poor fit]",–
Cc1cccc2c1-c1sc(C(=O)N(C)c3cccc(Cl)c3)cc1CO2,"inconclusive: 35.5 µM [inhibitor, partial curve, poor fit]",–

SMILES,Potency,"activity change, negative = inhibition"
O=C(CCC(=O)c1cccs1)NCCC(=O)Nc1ccc(F)c(Cl)c1,–,inactive: 17.2%
CCNc1ncnc2c1CN(C1CCNC1)C(=O)CN2C (configuration not stated),"inconclusive: 50.1 µM [inhibitor, partial curve]",–
Cc1cc2c(n1-c1ccc(C(=O)NCc3ccccc3Cl)cc1)CCCC2,"inconclusive: 17.8 µM [inhibitor, partial curve, poor fit]",–
CC(C)CCNC(=O)CC1Sc2ncccc2N(C)C1=O (configuration not stated),"inconclusive: 5.62 µM [inhibitor, partial curve]",–
O=C(NC1CCCC1)N1c2ccccc2CC1c1nc(C2CC2)no1 (configuration not stated),"inconclusive: 25.1 µM [inhibitor, partial curve, poor fit]",–
CCOc1ccc(Cl)cc1CN(C)c1cc(C2CC(O)C2)nc(N)n1 (configuration not stated),–,inactive: 5.74%
O=C(NCCc1ccco1)C1CC(=O)N(c2n[nH]c3cccc(F)c23)C1 (configuration not stated),"inconclusive: 31.6 µM [inhibitor, partial curve, poor fit]",–
Cc1cc(C)cc(NS(=O)(=O)c2c(C)[nH]c(C)c2C(=O)N2CCCC2)c1,–,inactive: 14.3%
CCN(CC)CCCNC(=O)Cc1csc2nc(-c3ccc(Cl)cc3)cn12,"inconclusive: 8.91 µM [inhibitor, partial curve, poor fit]",–
CN(Cc1cccnc1)c1ccc2ncc(Nc3ccc(C(F)(F)F)cc3)n2n1,active: 25.1 µM,–
O=C1[C@@H]2C[C@@H](CN2C2CCOCC2)Oc2ccccc2N1Cc1ccccn1,"inconclusive: 28.2 µM [inhibitor, partial curve, poor fit]",–
Cc1cccc(-c2noc([C@@H]3Cc4nc[nH]c4CN3C(=O)NC3CCCCC3)n2)c1,"inconclusive: 14.1 µM [inhibitor, partial curve]",–
O=C(CN1C(=O)NC2(CCCCC2)C1=O)Oc1ccc2c(C(F)(F)F)cc(=O)oc2c1,"inconclusive: 28.2 µM [inhibitor, partial curve, poor fit]",–
O=C(COC(=O)c1ccc[nH]c1=O)NC1CC1,"inconclusive: 31.6 µM [inhibitor, partial curve, poor fit]",–
CCOc1ccc(NC(=O)c2cnc(SC)nc2C(F)(F)F)cc1,–,inactive: 0.491%
COc1cccc(NC(=O)CN(CCc2ccccc2)S(=O)(=O)c2ccc(Cl)cc2)c1,"inconclusive: 31.6 µM [inhibitor, single point]",–
Cc1ccc(-c2csc(NC(=O)c3cc4cnn(C(C)C)c4nc3C)n2)cc1,"inconclusive: 28.2 µM [inhibitor, partial curve, poor fit]",–
CCOc1ccc(NS(=O)(=O)c2ccc3[nH]c4c(c3c2)CCCCC4)cc1,"inconclusive: 12.6 µM [inhibitor, partial curve, poor fit]",–
CC(=O)Nc1ccc(S(=O)(=O)N2CCC(NC(=O)CCC3CCCCC3)CC2)cc1,–,inactive: -3.57%
COc1ccccc1C(=O)NCC1Cn2cccc2C(=O)N1C (configuration not stated),–,inactive: -26.2%
Cc1cc(C(=O)OCC(=O)NC(c2ccccc2)c2ccccc2)c2ccccc2n1,–,inactive: -6.15%

SMILES,Potency,"activity change, negative = inhibition"
COCC1CN(C)CC12CCN(S(=O)(=O)c1ccc3c(c1)OCCO3)CC2 (configuration not stated),"inconclusive: 11.2 µM [inhibitor, partial curve]",–
CCOc1ccc(S(=O)(=O)NCCc2c(C)[nH]c3c(Cl)cccc23)cc1C,"inconclusive: 12.6 µM [inhibitor, partial curve, poor fit]",–
Cc1c(C(=O)Nc2ccc(F)c(C(F)(F)F)c2)sc2nc(-c3ccccc3)cn12,"inconclusive: 15.8 µM [inhibitor, partial curve, poor fit]",–
CC(=O)Nc1ccc(C(=O)N2CCC3(CC2)N=C(c2ccc(Cl)cc2)NO3)cc1,"inconclusive: 28.2 µM [inhibitor, single point]",–
Cc1cc(C)cc(NC(=O)Cc2c[nH]c3ccccc23)c1,–,inactive: 7.25%
COc1ccc2cc(COC(=O)c3nn(C)c(=O)c4ccccc34)ccc2c1,"inconclusive: 17.8 µM [inhibitor, partial curve, poor fit]",–
CC(=O)c1sc(Cc2cccc(Cl)c2)nc1C,–,inactive: 6.43%
CN(C)c1ccc(NC(=O)Cn2nc3n(c2=O)CCCC3)cc1,"inconclusive: 28.2 µM [inhibitor, partial curve, poor fit]",–
O=C(c1ccc2c(c1)OCO2)N1CCC2(CC(c3cccc(C(F)(F)F)c3)=NO2)C1 (configuration not stated),"inconclusive: 79.4 µM [inhibitor, partial curve, poor fit]",–
O=C(CCCn1c(=O)c2cccn2c2ccccc21)N1CCN(c2cccc(Cl)c2)CC1,"inconclusive: 31.6 µM [inhibitor, single point]",–
CCOc1ccc(NC(=O)c2ccc3c(c2)N(CC)C2CCCCCN2C3=O)cc1 (configuration not stated),"inconclusive: 28.2 µM [inhibitor, partial curve, poor fit]",–
O=C(NC[C@H]1Cn2c(-c3ccc(Cl)cc3)cnc2CO1)C1CCCC1,"inconclusive: 56.2 µM [inhibitor, single point]",–
COc1cc(CNC(=O)c2cc(C3CC3)nc3onc(C)c23)cc(OC)c1OC,–,inactive: 12.2%
Cc1cc(C)c2c(=O)cc(C(=O)Nc3nnc(C)s3)oc2c1,–,inactive: 20.7%
COc1ccc(C(=O)Nc2ccc3nc(SCC(=O)N(C)c4ccccc4)sc3c2)cc1,"inconclusive: 39.8 µM [inhibitor, partial curve, poor fit]",–
O=c1c2nc(-c3ccsc3)ccc2ncn1-c1ccccc1,active: 39.8 µM,–
Cc1nc2c(c(-c3ccc(O)cc3)n1)CN(Cc1cccnc1)CC2,"inconclusive: 25.1 µM [inhibitor, partial curve, poor fit]",–
COc1cccnc1C(=O)N1CCC(N2CCCC(C(=O)N3CCCC3)C2)CC1 (configuration not stated),"inconclusive: 7.94 µM [inhibitor, partial curve]",–
Cc1ccc(/C=C/C(=O)c2c(C)nc3ccc(Br)cc3c2-c2ccccc2)o1,"inconclusive: 28.2 µM [inhibitor, partial curve, poor fit]",–
O=C(Nc1nc2ccc(F)cc2s1)c1nc(S(=O)(=O)Cc2ccccc2F)ncc1Cl,"inconclusive: 4.47 µM [inhibitor, full curve, poor fit]",–
